# Experimental data as given in PubChem BioAssay AID926 (National Center for Advancing Translational Sciences (NCATS), 2007).
# The campaign covered roughly 73,000 compounds. About 350 (0.48%) were called active. Another 17% or so got no clear call; they are omitted. Some entries of the source have several records that differ or are many. The other results are left out here. The source may hold further records. The records of an entry are repeats (runs, samples, wells, individuals or studies).
# Assay: qHTS Assay for Agonists of the Thyroid Stimulating Hormone Receptor;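 also: the control signal comes from parental cells without the receptor; % of control where 0% means no effect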
# Conditions: HEK293-CNG-TSHR cells (CNG channel as cAMP sensor), membrane potential dye, cAMP; measured here: parental cells max response
# Excerpt: NIH Chemical Genomics Center [NCGC]
# NIH Molecular Libraries Screening Centers Network [MLSCN]
# PI Name: Dr. Marvin Gershengorn, NIH
# Thyroid Stimulating Hormone Receptor
# TSH is an alpha/beta heterodimeric glycoprotein hormone secreted from the anterior pituitary gland which belongs to the glycoprotein hormone family. The actions of TSH are mediated by a seven-transmembrane receptor, which upon TSH binding couples preferentially to the G-alpha (s) protein (Gs), resulting in activation of adenylate cyclase and increase in cyclic adenosine 3', 5' monophosphate (cAMP). The TSH receptor (THSR) is mainly expressed in thyroid follicular cells and regulates their growth and function. Recombinant TSH is used to activate TSHR in patients with thyroid cancer receiving thyroid hormone suppression therapy and to screen for residual tumor after surgery, but it is expensive and must be administered intramuscularly. […]
# High Throughput Screening. […] 23 nl/well compound or control was then added to the assay plates, which were incubated for additional 30 min before reading a Envision fluorescence plate reader (Perkin Elmer) in bottom-read mode for fluorescence intensity (emission at 590 nm).
# Keywords: Thyroid-stimulating hormone TSH, TSHR, TSHR agonist, quantitative high throughput screening, qHTS, HTS, probe identification, CNG, cAMP, cyclic nucleotide gated ion channel PubChem
row,Structure (SMILES),activation
1,CNCC[C@H](Oc1ccc(C(F)(F)F)cc1)c1ccccc1,"18.2, 5.58, 5.4, -2.39, 44.6% [separate samples]"
